Biological target: T1, KRAS^G12C/SOS1 (Homo sapiens, UniProt Q07889)
T1 sequence (Q07889 1-1333): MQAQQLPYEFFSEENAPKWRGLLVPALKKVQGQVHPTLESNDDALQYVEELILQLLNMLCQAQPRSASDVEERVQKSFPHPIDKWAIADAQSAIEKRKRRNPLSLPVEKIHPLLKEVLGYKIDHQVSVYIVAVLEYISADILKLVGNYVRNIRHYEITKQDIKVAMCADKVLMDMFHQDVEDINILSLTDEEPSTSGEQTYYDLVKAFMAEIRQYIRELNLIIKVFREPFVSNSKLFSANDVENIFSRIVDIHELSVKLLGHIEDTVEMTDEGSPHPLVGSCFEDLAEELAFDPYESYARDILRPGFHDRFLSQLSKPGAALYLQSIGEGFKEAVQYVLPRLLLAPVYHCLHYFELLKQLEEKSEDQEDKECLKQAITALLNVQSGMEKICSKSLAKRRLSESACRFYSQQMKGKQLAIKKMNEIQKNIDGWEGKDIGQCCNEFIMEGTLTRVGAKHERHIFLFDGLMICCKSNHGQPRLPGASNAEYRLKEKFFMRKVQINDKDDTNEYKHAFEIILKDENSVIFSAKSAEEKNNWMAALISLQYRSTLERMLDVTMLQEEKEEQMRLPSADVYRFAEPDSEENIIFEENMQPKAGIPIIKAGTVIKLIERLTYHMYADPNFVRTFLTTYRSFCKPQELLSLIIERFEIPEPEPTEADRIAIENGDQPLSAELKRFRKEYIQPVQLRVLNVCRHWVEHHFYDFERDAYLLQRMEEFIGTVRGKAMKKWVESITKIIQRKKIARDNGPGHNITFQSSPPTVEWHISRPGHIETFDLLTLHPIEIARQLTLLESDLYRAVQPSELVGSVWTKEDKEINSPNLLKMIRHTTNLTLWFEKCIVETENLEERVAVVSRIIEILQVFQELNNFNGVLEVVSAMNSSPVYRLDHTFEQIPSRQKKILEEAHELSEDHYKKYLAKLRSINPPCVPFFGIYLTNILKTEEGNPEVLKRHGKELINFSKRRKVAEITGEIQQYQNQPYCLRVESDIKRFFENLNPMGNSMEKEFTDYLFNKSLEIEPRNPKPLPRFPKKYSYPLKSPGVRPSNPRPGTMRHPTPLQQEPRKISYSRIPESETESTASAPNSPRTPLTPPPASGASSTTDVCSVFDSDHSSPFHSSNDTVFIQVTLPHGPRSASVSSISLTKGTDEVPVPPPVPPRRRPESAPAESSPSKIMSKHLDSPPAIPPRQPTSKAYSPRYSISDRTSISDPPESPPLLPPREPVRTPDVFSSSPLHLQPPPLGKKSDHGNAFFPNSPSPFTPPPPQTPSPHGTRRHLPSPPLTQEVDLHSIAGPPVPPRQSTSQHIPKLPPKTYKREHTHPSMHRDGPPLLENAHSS
Assay: biochemical

IC50	Compound
< 0.05 µM	Cc1nc(N[C@H](C)c2ccc(-c3ccccc3CN3CCCC3)s2)c2cc(N3CCN(C4CCCC4)CC3)c(=O)n(C)c2n1 [Example 51]
< 0.05 µM	Cc1nc(N[C@H](C)c2ccc(-c3ccccc3CN3CCCC3)s2)c2cc(N3CC4CCC(C3)N4)c(=O)n(C)c2n1 [Example 52]
< 0.05 µM	Cc1nc(N[C@H](C)c2ccc(-c3ccccc3CN3CCCC3)s2)c2cc(N3CC4CCC(C3)N4C)c(=O)n(C)c2n1 [Example 53]
< 0.05 µM	Cc1nc(N[C@H](C)c2ccc(-c3ccccc3CN3CCCC3)s2)c2cc(N3CC4CC(C3)N4)c(=O)n(C)c2n1 [Example 54]
0.05 to 0.1 µM	Cc1nc(N[C@H](C)c2ccc(-c3cnn4c3CN(C)CC4)cc2)c2cc(N3CCOCC3)c(=O)n(C)c2n1 [Example 57]
0.05 to 0.1 µM	Cc1nc(N[C@H](C)c2ccc(-c3cnccc3CN3CCCC3)cc2)c2cc(N3CCOCC3)c(=O)n(C)c2n1 [Example 58]
< 0.05 µM	Cc1nc(N[C@H](C)c2ccc(-c3ccccc3C3(N)CC3)cc2)c2cc(N3CCOCC3)c(=O)n(C)c2n1 [Example 59]
0.024 µM	Cc1nc(N[C@H](C)c2sc(-c3cc(F)c(F)cc3CN3CCCC3)cc2F)c2cc(N3CCOCC3)c(=O)n(C)c2n1 [Example 62]
< 0.05 µM	Cc1nc(N[C@H](C)c2sc(-c3cccc4c3CN(C)CC4)cc2F)c2cc(N3CCOCC3)c(=O)n(C)c2n1 [Example 65]
< 0.05 µM	Cc1nc(N[C@H](C)c2sc(-c3ccccc3CN(C)C)cc2F)c2cc(N3CCOCC3)c(=O)n(C)c2n1 [Example 67]
0.05 to 0.1 µM	Cc1nc(N[C@H](C)c2sc(-c3ccncc3CN3CCCC3)cc2F)c2cc(N3CCOCC3)c(=O)n(C)c2n1 [Example 68]
0.232 µM	Cc1nc(N[C@H](C)c2cc(N)cc(C(F)(F)F)c2)c2cc(N3CCOCC3)c3nccn3c2n1 [Example 69]
0.05 to 0.1 µM	Cc1nc(N[C@H](C)c2cc(N)cc(C(F)(F)F)c2)c2cc(N3CCN(C(C)C)CC3)c3nccn3c2n1 [Example 70]
0.166 µM	Cc1nc(N[C@H](C)c2cc(N)cc(C(F)(F)F)c2)c2cc(N3CCN(C4CCCC4)CC3)c3nccn3c2n1 [Example 71]
0.273 µM	Cc1nc(N[C@H](C)c2cc(N)cc(C(F)(F)F)c2)c2cc(N3CC4CCC(C3)N4C)c3nccn3c2n1 [Example 72]
< 0.05 µM	COC1(c2cc3c(N[C@H](C)c4cc(N)cc(C(F)(F)F)c4)nc(C)nc3n3ccnc23)CCS(=O)(=O)CC1 [Example 77]
< 0.05 µM	COC1(c2cc3c(N[C@H](C)c4cccc(C(F)(F)F)c4C)nc(C)nc3n3ccnc23)CCOCC1 [Example 79]
< 0.05 µM	Cc1nc(N[C@H](C)c2cccc(C(F)(F)F)c2C)c2cc(C3(C#N)CCS(=O)(=O)CC3)c3nccn3c2n1 [Example 80]
< 0.05 µM	Cc1nc(N[C@H](C)c2cc(N)cc(C(F)(F)F)c2)c2cc(C3(F)CCS(=O)(=O)CC3)c3nccn3c2n1 [Example 88]
< 0.05 µM	Cc1nc(N[C@H](C)c2cc(N)cc(C(F)(F)F)c2)c2cc(C3(C#N)CCN(C(=O)C(C)C)CC3)c3nccn3c2n1 [Example 90]

More lines, now with the values behind:

Compound	IC50
Cc1nc(N[C@H](C)c2ccc(-c3ccccc3CN3CCCC3)s2)c2cc(NC3CCOCC3)c(=O)n(C)c2n1 [Example 55]	0.05 to 0.1 µM
Cc1nc(N[C@H](C)c2ccc(-c3ccccc3CN(C)C)cc2)c2cc(N3CCOCC3)c(=O)n(C)c2n1 [Example 56, (R)-4-((1-(2′-((dimethylamino)methyl))-[1,1′-biphenyl]-4-yl)ethyl) amino-2,8 dimethyl-6-morpholinopyridine [2,3-d] opyrimidin-7 (8H)-one]	0.01 µM
Cc1nc(N[C@H](C)c2ccc(-c3cccc4c3CN(C)CC4)cc2)c2cc(N3CCOCC3)c(=O)n(C)c2n1 [Example 60]	0.01 µM
Cc1nc(N[C@H](C)c2sc(-c3cnn4c3CN(C)CC4)cc2F)c2cc(N3CCOCC3)c(=O)n(C)c2n1 [Example 63]	> 0.1 µM
Cc1nc(N[C@H](C)c2sc(-c3cnccc3CN3CCCC3)cc2F)c2cc(N3CCOCC3)c(=O)n(C)c2n1 [Example 64]	0.05 to 0.1 µM
Cc1nc(N[C@H](C)c2sc(-c3ccccc3C3(N)CC3)cc2F)c2cc(N3CCOCC3)c(=O)n(C)c2n1 [Example 66]	< 0.05 µM
Cc1nc(N[C@H](C)c2cc(N)cc(C(F)(F)F)c2)c2cc(N3CC4CCC(C3)N4C(C)C)c3nccn3c2n1 [Example 73]	0.199 µM
Cc1nc(N[C@H](C)c2cc(N)cc(C(F)(F)F)c2)c2cc(N3CC4CCC(C3)N4C3CCCC3)c3nccn3c2n1 [Example 74]	0.301 µM
COC1(c2cc3c(N[C@H](C)c4cc(N)cc(C(F)(F)F)c4)nc(C)nc3n3ccnc23)CCOCC1 [Example 75]	< 0.05 µM
COC1(c2cc3c(N[C@H](C)c4cc(N)cc(C(F)(F)F)c4)nc(C)nc3n3ccnc23)CCN(C(C)=O)CC1 [Example 76]	< 0.05 µM
Cc1nc(N[C@H](C)c2cc(N)cc(C(F)(F)F)c2)c2cc(C3(C#N)CCS(=O)(=O)CC3)c3nccn3c2n1 [Example 78]	< 0.05 µM
COC1(c2cc3c(N[C@H](C)c4cccc(C(F)(F)F)c4C)nc(C)nc3n3ccnc23)CCN(C(C)C)CC1 [Example 81]	< 0.05 µM
Cc1nc(N[C@H](C)c2cc(N)cc(C(F)(F)F)c2)c2cc(-c3ccc(=O)n(C(C)C)c3)c3nccn3c2n1 [Example 82]	0.189 µM
Cc1nc(N[C@H](C)c2cc(N)cc(C(F)(F)F)c2)c2cc(-c3ccc(=O)n(C4CCCC4)c3)c3nccn3c2n1 [Example 83]	0.245 µM
Cc1nc(N[C@H](C)c2cc(N)cc(C(F)(F)F)c2)c2cc(-c3ccc(=O)n(CC4CCCC4)c3)c3nccn3c2n1 [Example 84]	0.251 µM
CC(=O)N1CCC(O)(c2cc3c(N[C@H](C)c4cc(N)cc(C(F)(F)F)c4)nc(C)nc3n3ccnc23)CC1 [Example 85, (R)-1-(4-(4-((1-(3-amino-5-(trifluoromethyl)phenyl)ethyl)amino)-2-methylimidazole [1′,2′:1,6]pyrido [2,3-d]pyrimidin-6-yl)-4-hydroxypiperidin-1-yl) ethyl-1-one]	0.0035 µM
CC(=O)N1CCC(F)(c2cc3c(N[C@H](C)c4cc(N)cc(C(F)(F)F)c4)nc(C)nc3n3ccnc23)CC1 [Example 86]	< 0.05 µM
Cc1nc(N[C@H](C)c2cc(N)cc(C(F)(F)F)c2)c2cc(C3(F)CCOCC3)c3nccn3c2n1 [Example 87]	< 0.05 µM
COC1(c2cc3c(N[C@H](C)c4cc(N)cc(C(F)(F)F)c4)nc(C)nc3n3ccnc23)CCN(C(=O)C(C)C)CC1 [Example 89]	< 0.05 µM
COC1(c2cc3c(N[C@H](C)c4cc(N)cc(C(F)(F)F)c4)nc(C)nc3n3ccnc23)CC2CCC(C1)N2C(=O)C(C)C (stereo partly drawn) [Example 91]	< 0.05 µM
COC1(c2cc3c(N[C@H](C)c4cc(N)cc(C(F)(F)F)c4)nc(C)nc3n3ccnc23)CC2CCC(C1)N2C (stereo partly drawn) [Example 92]	< 0.05 µM
COC1(c2cc3c(N[C@H](C)c4cc(N)cc(C(F)(F)F)c4)nc(C)nc3n3ccnc23)CC2CCC(C1)N2C(C)C (stereo partly drawn) [Example 93]	< 0.05 µM
Cc1cn2c(n1)c(-c1ccc(=O)n(C)c1)cc1c(N[C@H](C)c3cc(N)cc(C(F)(F)F)c3)nc(C)nc12 [Example 94, (R)-5-(4-((1-(3-amino-5-(trifluoromethyl)phenyl)ethyl)amino)-2,8-dimethylimidazole [1′,2′:1,6]pyrido [2,3-d]pyrimidin-6-yl)-1-methylpyridin-2 (1H)-one]	> 0.1 µM
Cc1cn2c(n1)c(N1CCOCC1)cc1c(N[C@H](C)c3cc(N)cc(C(F)(F)F)c3)nc(C)nc12 [Example 95, (R)-N-(1-(3-Amino-5-(trifluoromethyl)phenyl)ethyl)-2,8-dimethyl-6-morpholinimidazole [1′,2′:1,6] pyrido [2,3-d] pyrimidin-4-amine]	0.05 to 0.1 µM
COC1(c2cc3c(N[C@H](C)c4cc(N)cc(C(F)(F)F)c4)nc(C)nc3n3cc(C)nc23)CCN(C(C)=O)CC1 [Example 96, (R)-1-(4-(4-((1-(3-amino-5-(trifluoromethyl)phenyl)ethyl)amino)-2,8-dimethylimidazole [1′,2′:1,6]pyrido [2,3-d]pyrimidin-6-yl)-4-methoxypiperidin-1-yl) ethyl-1-one]	< 0.05 µM
